Data on 110 molecules can be found in PubChem BioAssay AID1240 (Sanford-Burnham Center for Chemical Genomics, 2008).

In all, about 50,000 compounds went through this assay and about 800 (1.6%) showed an effect of 50% or more. Some of the results follow.

The target of the test is Bcl-2-like protein 10 (Homo sapiens) (UniProt Q9HD36). Description: TR3 peptide-Bcl-B binding displacers, biochemical primary FP assay, phenotype converters (AID 1240).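 Further: 0% = Bcl-B with tracer peptide and DMSO and 100% = tracer peptide lacking Bcl-B.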 The settings on record: GST-Bcl-B / FITC-TR3 peptide fluorescence polarization; stronger effect = higher value; compound at 3.75 mg/L.
UniProt Q9HD36, sequence (Q9HD36 whole entry, looked up): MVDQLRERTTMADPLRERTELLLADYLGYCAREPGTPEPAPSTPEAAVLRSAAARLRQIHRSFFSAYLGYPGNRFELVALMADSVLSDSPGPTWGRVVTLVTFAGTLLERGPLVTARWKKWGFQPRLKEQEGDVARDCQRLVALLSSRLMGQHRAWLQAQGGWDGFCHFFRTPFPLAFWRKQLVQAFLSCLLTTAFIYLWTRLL
In the case of `CCC1=NN2C(=N)/C(=C/c3ccc(-c4cccc([N+](=O)[O-])c4)o3)C(=O)N=C2S1`, the displacement is 124%.
As for `O=[N+]([O-])c1cccc(C2=Nc3ccc([N+](=O)[O-])cc3ON2)c1`, the displacement is -0.9%.
As for `Cc1ccc(CC2CC(=O)N(CCc3ccc4c(c3)OCO4)C2=O)cc1` (stereo not given), the displacement worked out at 9.9%.
Turning to `CN(C)c1ccc(-c2nc3cc(NC(=O)c4cc5ccccc5o4)ccc3o2)cc1`, the displacement was 15.9%.
For `CCOc1ccc(N(CC(=O)Nc2cccc(C)c2)S(C)(=O)=O)cc1`, the displacement stood at 0.1%.
For the molecule `NS(=O)(=O)c1cccc(NC(=O)c2ccc(-c3cccc(Cl)c3)o2)c1`, the displacement is -9.6%.
The figure for `COc1ccc(CSCC(=O)NC2CCCCC2)cc1` is 0.4%; for `COc1ccc2c(c1)C(C)=CC(C)(C)N2S(=O)(=O)c1ccc(NC(C)=O)cc1` it is 1.8%; for `Cc1nc2c(C)c(-c3ccccc3)[nH]n2c(=O)c1Cl` it is 6.8%.
On to `Cn1c(=O)c2c(nc(NCC(O)c3ccccc3)n2C)n(C)c1=O` (stereo not given), for which the displacement is -7.1%.
As to `O=C(Nc1cccc(Br)c1)c1ccc(Cl)c([N+](=O)[O-])c1`, the displacement stood at 14.1%.
The figure for `Nc1ccc(C2=Nc3cccc4cccc(c34)N2)cc1` is 16.2%.
`COc1cccc(N2C(=O)CSC2=S)c1`: the displacement stood at 18%.
On to `COc1ccc(OC)c(N2C(=O)NC(=O)C(=Cc3cccs3)C2=O)c1`, for which the displacement was found to be 9.1%.
On to `O=[N+]([O-])c1ccc(N2CCN(S(=O)(=O)c3ccccc3)CC2)cc1N1CCOCC1`, for which the displacement came out at 10.5%.
Turning to `C=CCN1C(=O)CS/C1=N\N=C\c1cccc([N+](=O)[O-])c1`, the displacement amounted to 16.1%.
The figure for `O=C(CC1CCC1)Nc1ccc2c(c1)oc1ccccc12` is -17.7%; for `COc1ccc(/C=C/C(=O)c2ccc(I)cc2)cc1` it is -7.2%; for `O=C(/C=C/c1cccc([N+](=O)[O-])c1)NCCC12CC3CC(CC(C3)C1)C2` it is 15.6%.
For the molecule `c1ccc(Nc2ccc3ccccc3n2)nc1`, the displacement is -0.5%.
Regarding `CC1=NN(c2ccc(S(N)(=O)=O)cc2)C(=O)/C1=C\c1ccc(-c2ccc(Br)cc2)o1`, the displacement is -2.7%.
Regarding `Cc1ccc2c(Cl)c(C(=O)N3CCN(c4ccc(F)cc4)CC3)sc2c1`, the displacement was determined as 3.7%.
Regarding `CSC(=N)/C(C#N)=N/Nc1ccccc1`, the displacement turned out to be 22.5%.
Take `CCN(CC)S(=O)(=O)c1ccc(NC(=O)COc2ccccc2)cc1`: the displacement was 12.3%.
The figure for `COc1ccc(OC)c(/C=C2/C(=O)NN(c3ccc(C)cc3)C2=O)c1` is 8.5%; for `CCOC(=O)c1c(C)nc2ccc(OC(F)(F)F)cc2c1-c1ccccc1` it is 9.9%.
Consider `COc1ccc(-c2cc(-c3ccccc3)nc(N/N=C/c3cccnc3)n2)cc1`, for which the displacement was -15.9%.
For `O=C1C2C3C=CC(C3)C2C(=O)N1c1ccc(Cl)cc1[N+](=O)[O-]` (stereo not given), the displacement is -22.2%.
The figure for `COc1ccc(N=C(Sc2nc3ccccc3o2)c2ccc([N+](=O)[O-])cc2[N+](=O)[O-])cc1` is -0.2%.
For `COc1ccc(CNC(=O)N2CCOCC2)cc1`, the displacement turned out to be 9.1%.
Take `CCCN1C(=O)c2ccccc2NC1c1ccc(F)cc1` (stereo not given): the displacement came to 13.2%.
The figure for `COC(=O)CN(c1ccccc1Br)S(C)(=O)=O` is 17%.
For `Cc1ccc(N2C(=O)/C(=C\c3ccc(-c4ccc(Cl)c(C(=O)O)c4)o3)C(=O)NC2=S)cc1`, the displacement came to 10.8%.
Take `O=C(Cc1ccc(Br)cc1)Nc1ccccc1C(F)(F)F`: the displacement was determined as 5%.
As to `O=C1NC(=Nc2cccc(Cl)c2Cl)S/C1=C\c1ccco1`, the displacement was found to be 42.1%.
On to `Nc1nnc2c(n1)-c1ccccc1C2=O`, for which the displacement was determined as 1%.
The result for `CC(=O)C1=C(O)C(=O)N(CCN(C)C)C1c1ccc(C(C)C)cc1` (stereo not given) reads -6.6%.
Turning to `C/C(=N\N1CCN(Cc2ccccc2)CC1)c1ccco1`, the displacement was -10.8%.
As for `O=C(CSCC(=O)Nc1ccccc1)NCc1ccccc1`, the displacement was -1.3%.
In the case of `Cc1ccccc1OCC(=O)N/N=C/c1ccc[nH]1`, the displacement is -4.5%.
`CCN1C(=O)/C(=C2\SC(=S)N(c3cc(OC)ccc3OC)C2=O)c2ccccc21`: the displacement worked out at 13%.
Regarding `COC(=O)C1=C(O)/C(=C/c2ccc(OCC(=O)NC(C)C)cc2)N=C1C`, the displacement turned out to be 9.6%.
Regarding `CC1(C)Cc2ccccc2C2=C(C(=O)N3CCOCC3)C(=O)C(=O)N21`, the displacement was 6.6%.
With `O=C(NCc1ccc(Cl)cc1Cl)C(=O)N/N=C/c1ccccc1F`, the displacement is 7.6%.
On to `N#CC(C#N)=CN1CCCc2ccccc21`, for which the displacement was -7.9%.
As to `O=c1nc(/C=C/c2ccc(Cl)cc2)cc(C(F)(F)F)[nH]1`, the displacement was 4.5%.
`COC(=O)c1c(NC(=O)C2C3CCC(C3)C2C(=O)O)sc(C)c1-c1cc(C)ccc1C` (stereo not given): the displacement was 3%.
For the molecule `Cc1ccc(-n2nc(C)c(-c3cccc([N+](=O)[O-])c3)c2C)cc1C`, the displacement came out at 13.6%.
With `COc1ccc(C=C2C(=O)N(C)C(=O)N(C)C2=O)cc1O`, the displacement was -7.9%.
Turning to `CN(C)c1ccc(/C=C/C=N/N=c2\sc3ccccc3n2C)cc1`, the displacement is -7.1%.
The result for `Cc1oc2ccc(NS(=O)(=O)c3ccccc3)cc2c1C(=O)OC(C)C` reads 7.6%; that for `CCN(CC)c1ccc(/C=c2\sc3nc4ccccc4n3c2=O)c(OC)c1`, 37.7%.
For `[O-]/[N+](=C\c1ccc(F)cc1)c1ccccc1`, the displacement amounted to 14.4%.
The figure for `Cc1ccc(NC(=O)/C(=C\c2ccc(C)o2)NC(=O)c2ccccc2I)cc1` is -2.1%; for `C=CCC1S/C(=N\N=C\c2ccc(Cl)cc2)NC1=O` (stereo not given) it is -3.2%; for `O=C(COc1ccccc1)Nc1ccc(-c2nc3ccccc3s2)c(O)c1` it is -2.9%.
The figure for `CCOc1ccc(C(NC(=O)c2ccc(OC)cc2)c2ccc(OC)cc2)cc1` (stereo not given) is -2.3%; for `COc1ccc(N2C(=O)NC(=O)/C(=C/c3ccccc3O)C2=O)cc1` it is -2.5%.
The result for `O=C1C(=O)N(c2cccc(Cl)c2)C(c2ccc([N+](=O)[O-])cc2)/C1=C(\O)c1ccccc1` (stereo not given) reads 13.3%.
For the molecule `Cc1sc(NC(=O)COc2ccccc2)c(C#N)c1C`, the displacement is 16.7%.
As for `CCNC(=S)NC(C(=O)OC)C12CC3CC(CC(C3)C1)C2` (stereo not given), the displacement was -12.4%.
Consider `CC1(C)CC(NC(=O)CNC2CCCCC2)CC(C)(C)N1`, for which the displacement amounted to 4.2%.
The figure for `O=C(CC(c1ccccc1)c1ccccc1)Nc1ncccc1Cl` is -12.3%; for `O=C(NCc1ccco1)C1CC2CCC1C2` (stereo not given) it is 5.8%.
In the case of `NNC(=O)c1cc(-c2ccc3c4c(cccc24)CC3)n[nH]1`, the displacement was 5.3%.
On to `C=CCc1ccccc1OCCOc1ccc(/C=N/n2cnnc2)cc1OC`, for which the displacement turned out to be 11.4%.
Take `O=C(N/N=C/c1cccs1)c1sc2cc(Cl)ccc2c1Cl`: the displacement turned out to be 7.2%.
With `COc1ccc(S(=O)(=O)N(CC(=O)Nc2ccc(Br)cc2)c2ccc(C)cc2)cc1OC`, the displacement amounted to 8.5%.
As for `Cc1cc(NC(=O)CCN2C(=O)/C(=C/c3ccccc3)SC2=S)no1`, the displacement worked out at 5.3%.
The result for `O=C(NN1CCOCC1)c1cccc(F)c1` reads 8.1%; that for `Cc1ccc(Br)cc1S(=O)(=O)NCc1ccco1`, 13.2%.
Regarding `CC(C)OCC(O)CNc1ccccc1` (stereo not given), the displacement is 9%.
As to `Cc1ccc(SCCNS(=O)(=O)c2ccc(C)c([N+](=O)[O-])c2)cc1`, the displacement was -4.4%.
The figure for `COc1ccccc1/C=c1/sc2nc(-c3ccc(Cl)cc3Cl)nn2c1=O` is 7.3%; for `COc1ccc(OC)c(NC(=O)C2C3C4CCC(C4)C23)c1` (stereo not given) it is -45.1%.
The figure for `COc1ccc(CCC(=O)NCCc2ccc(OC)c(OC)c2)cc1` is -2.2%; for `O=C(NN1C(=O)/C(=C/c2ccc(O)cc2)SC1=S)c1ccccc1Br` it is -72.2%.
In the case of `O=C1OC(OCc2ccccc2)(c2ccccc2)c2ccccc21` (stereo not given), the displacement worked out at 6.4%.
On to `O=c1c2ccccc2nc(-c2ccccc2)n1/N=C/c1cccs1`, for which the displacement was determined as 6.3%.
As to `O=C(COc1ccc(Cl)cc1Cl)Nc1ccc(O)c(-c2nc3ccccc3s2)c1`, the displacement is 14.9%.
Regarding `Cc1ccc(NC(=O)c2ccn(C(=O)c3cccc(I)c3)n2)c(C)c1`, the displacement was -1.6%.
In the case of `CCOc1ccc(-c2nn(-c3ccccc3)cc2/C=C2\SC(=S)N(CCOC)C2=O)cc1`, the displacement is 26.7%.
The result for `CC(/C=C/c1ccc2c(c1)OCO2)=N\NC(=O)c1cccc([N+](=O)[O-])c1` reads 1.2%; that for `O=S(=O)(Oc1ccccc1)c1ccc2c(c1)Cc1cc(S(=O)(=O)Oc3ccccc3)ccc1-2`, 7.9%; that for `COC(=O)c1c(N)sc(C)c1-c1ccc(OC)cc1`, 5%.
On to `COc1ccc(C2C(C(C)=O)C(=O)CC(C)(O)C2C(C)=O)c(OC)c1` (stereo not given), for which the displacement turned out to be 10.5%.
On to `O=C1CSC(=O)N1c1ccc([N+](=O)[O-])cc1`, for which the displacement turned out to be 1.2%.
For `C=CCc1c(C)nc2cc(-c3cccc(F)c3)[nH]n2c1=O`, the displacement came to 10.7%.
In the case of `COC(=O)c1ccccc1NC(=O)c1ccccc1[N+](=O)[O-]`, the displacement turned out to be 14.8%.
Take `COc1ccccc1NC1=C(Cl)C(=O)N(c2ccc(C)cc2)C1=O`: the displacement is -3.9%.
Regarding `COc1ccc(OC(C)C(=O)Nc2ccccc2F)cc1` (stereo not given), the displacement amounted to 13.6%.
The result for `CCN(CC)c1ccc(NC(=O)c2cccc(OC)c2)cc1` reads 11.2%; that for `CCOC(=O)c1ccc(N2NC(=O)/C(=C/c3ccc(C=O)cc3)C2=O)cc1`, -8.8%; that for `CC(O)C(=O)N/N=C/c1ccc(F)cc1` (stereo not given), 14.4%.
In the case of `Cc1cc(C)n(C(=O)CNC(=O)c2ccco2)n1`, the displacement turned out to be 16.7%.
`CCOC(=O)c1c(NC(=O)c2ccc(C)cc2)sc2c1CCC2`: the displacement was found to be 4.5%.
The figure for `CCOc1cc(C2C(C(=O)OCCOC)=C(C)NC3=C2C(=O)CC(C)(C)C3)ccc1OC(C)=O` (stereo not given) is -6%; for `O=C(COc1ccccc1[N+](=O)[O-])Nc1cc(-c2nc3ccccc3o2)ccc1Cl` it is 91.6%.
`O=C(Nc1cccc(C(=O)Nc2cccc(Cl)c2)c1)c1ccc([N+](=O)[O-])cc1`: the displacement is -4.6%.
In the case of `CCN(CC)CCn1c2ccccc2n2cc(-c3ccc(C)cc3)nc12`, the displacement is -16.1%.
On to `COc1ccc(OC)c(/C=C2/C(=O)N(c3ccc(C)cc3)N=C2C)c1`, for which the displacement was -5.7%.
With `CCSCCOC(=O)C1=C(C)NC2=C(C(=O)CCC2)C1c1ccc(OC)c(OCc2ccccc2)c1` (stereo not given), the displacement came to 0%.
The result for `COC(=O)c1ccccc1NCn1nc(-c2ccc(Cl)cc2Cl)oc1=S` reads -14.9%; that for `CNc1c([N+](=O)[O-])cnc2c1c(=N)nc1ccccn12`, -9.6%.
Consider `Cc1cc(C)c(OCC(=O)Nc2cccc3ccccc23)c(C)c1`, for which the displacement was 15.9%.
With `COC(=O)c1ccc(C2Nc3ccccc3-c3nnc(SC)nc3O2)cc1` (stereo not given), the displacement amounted to 18.4%.
The result for `COCCN1C(=O)/C(=C\c2ccc(F)cc2)C(C(=O)OC)=C1C` reads 7.3%; that for `CC(C)(C)NCCOc1cccc(Cl)c1Cl`, -15%.
Take `COc1ccc(C2NC(=S)NC(C)=C2C(=O)Nc2ccc(C)cc2)cc1OC` (stereo not given): the displacement was 4.2%.
As for `CC1(C)CC(=O)C2=C(C1)Nc1ccccc1N(C(=O)Cc1ccccc1)C2c1cccc(Cl)c1` (stereo not given), the displacement was -18.9%.
